The results in this text go back to paper PMC12533369, “Citrullination of AKT2 Catalyzed by PAD1 Facilitates the Maintenance of Stemness Characteristics of Ovarian Cancer Stem‐Like Cells in Ovarian Cancer” (Advanced Science, 2025).

Chains of the proteins cited; added tags and fusions are not shown.
UniProt P31749: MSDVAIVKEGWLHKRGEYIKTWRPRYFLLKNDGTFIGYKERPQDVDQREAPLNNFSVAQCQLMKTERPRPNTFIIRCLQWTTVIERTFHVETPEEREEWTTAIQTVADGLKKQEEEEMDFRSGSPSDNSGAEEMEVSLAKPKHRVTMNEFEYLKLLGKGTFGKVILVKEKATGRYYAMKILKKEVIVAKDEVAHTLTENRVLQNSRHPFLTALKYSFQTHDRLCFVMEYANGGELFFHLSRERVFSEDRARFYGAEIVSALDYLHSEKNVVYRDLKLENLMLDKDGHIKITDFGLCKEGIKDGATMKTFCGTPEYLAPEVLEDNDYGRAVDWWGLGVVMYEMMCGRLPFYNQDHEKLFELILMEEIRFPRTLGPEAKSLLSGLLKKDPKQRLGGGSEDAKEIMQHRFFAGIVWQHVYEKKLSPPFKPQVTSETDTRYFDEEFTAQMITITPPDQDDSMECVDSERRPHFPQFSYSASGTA
UniProt Q9Y243: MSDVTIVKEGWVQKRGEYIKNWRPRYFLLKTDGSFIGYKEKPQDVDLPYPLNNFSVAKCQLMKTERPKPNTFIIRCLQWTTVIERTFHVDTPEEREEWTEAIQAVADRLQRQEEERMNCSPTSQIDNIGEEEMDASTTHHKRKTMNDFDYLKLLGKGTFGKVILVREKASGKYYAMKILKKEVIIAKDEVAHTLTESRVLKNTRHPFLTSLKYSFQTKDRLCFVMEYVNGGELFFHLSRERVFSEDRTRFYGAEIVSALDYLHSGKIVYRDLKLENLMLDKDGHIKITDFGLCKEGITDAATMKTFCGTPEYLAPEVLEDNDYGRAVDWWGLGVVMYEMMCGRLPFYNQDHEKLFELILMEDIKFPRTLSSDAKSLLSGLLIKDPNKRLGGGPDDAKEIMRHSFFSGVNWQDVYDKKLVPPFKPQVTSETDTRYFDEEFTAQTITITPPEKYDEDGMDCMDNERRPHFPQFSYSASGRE

These are yes or no findings as the source states them, for the method shown. In cells and extracts the contact can be indirect. Some entries that bind do so weakly or less than the wild type. For part of these data: Where a sequence is shown, tags or fusion partners need not be part of it.

Assay [1] has as its target T1, peptidylarginine deiminase 1 (PAD1), endogenous (human (endogenous in OVCAR3)) (UniProt Q9ULC6).
T1 sequence: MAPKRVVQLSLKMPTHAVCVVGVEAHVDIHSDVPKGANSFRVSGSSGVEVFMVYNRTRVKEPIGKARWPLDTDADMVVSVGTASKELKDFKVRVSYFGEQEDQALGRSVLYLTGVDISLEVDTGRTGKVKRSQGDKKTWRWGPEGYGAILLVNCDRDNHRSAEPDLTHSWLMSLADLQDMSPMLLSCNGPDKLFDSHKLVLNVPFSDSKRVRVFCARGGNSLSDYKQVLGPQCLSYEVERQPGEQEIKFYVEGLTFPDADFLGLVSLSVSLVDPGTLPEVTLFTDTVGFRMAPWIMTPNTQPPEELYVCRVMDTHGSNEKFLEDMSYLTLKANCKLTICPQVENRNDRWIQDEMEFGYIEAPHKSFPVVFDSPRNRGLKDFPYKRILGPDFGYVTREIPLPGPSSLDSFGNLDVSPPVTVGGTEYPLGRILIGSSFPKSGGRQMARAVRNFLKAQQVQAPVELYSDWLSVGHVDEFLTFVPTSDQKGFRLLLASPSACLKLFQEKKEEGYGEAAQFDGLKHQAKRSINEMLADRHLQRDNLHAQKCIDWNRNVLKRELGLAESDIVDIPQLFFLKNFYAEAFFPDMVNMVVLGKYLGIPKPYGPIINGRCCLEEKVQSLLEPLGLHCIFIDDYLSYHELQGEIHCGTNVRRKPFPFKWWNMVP
Kind of assay: co-IP; OVCAR3 whole cell lysate immunoprecipitated with anti-PAD1 antibody; western blot with anti-AKT1, anti-AKT2 and anti-AKT3 antibodies; endogenous proteins. (In general: Immunoblotting shows a protein as a band on a membrane.)

In the next assay the target is T2, Flag-tagged PAD1 (human) (UniProt Q9ULC6).
T2 sequence: T1 sequence
Briefly: co-IP; HEK293 cells co-transfected with Flag-tagged PAD1 and HA-tagged AKT2 or its truncated forms; whole cell lysate immunoprecipitated with anti-Flag or anti-HA antibody; western blot with anti-HA and anti-Flag.

Assay [2] has as its target HA-tagged AKT2 (152–481 aa) (UniProt P31751). Described as above.
Assay [3] addresses HA-tagged AKT2 (full length) (UniProt P31751). Described as above.

Take “AKT1, endogenous (from UniProt P31749 1-480) (enzyme)”: the binding result in assay [1] is given as “no binding”. With “AKT2, endogenous (from UniProt P31751 1-481) (enzyme)”, in assay [1], the binding result is reported as “binds”. Take “AKT3, endogenous (from UniProt Q9Y243 1-479) (enzyme)”: in assay [1], the binding result was “no binding”. As for “HA-tagged AKT2 (152–481 aa) (from UniProt P31751 152-481) (domain or fragment)”, the binding result with Flag-tagged PAD1 (human) is listed as “binds”. Take “HA-tagged AKT2 (full length) (from UniProt P31751 1-481) (enzyme)”: the binding entry with Flag-tagged PAD1 (human) is reported as “binds”.

B1: HA-tagged AKT2 (1–108 aa) (domain or fragment, UniProt P31751 1-108)
chain: MNEVSVIKEGWLHKRGEYIKTWRPRYFLLKSDGSFIGYKERPEAPDQTLPPLNNFSVAECQLMKTERPRPNTFVIRCLQWTTVIERTFHVDSPDEREEWMRAIQMVAN
In the case of B1, the binding entry with Flag-tagged PAD1 (human) is on record as “no binding”.

B2: Flag-tagged PAD1 (enzyme, UniProt Q9ULC6 1-663)
chain: T1 sequence
For the molecule B2, the binding result in assay [2] and in assay [3] was “binds” in each case.

B3: HA-tagged AKT2 (1–151 aa) (domain or fragment, UniProt P31751 1-151)
chain: MNEVSVIKEGWLHKRGEYIKTWRPRYFLLKSDGSFIGYKERPEAPDQTLPPLNNFSVAECQLMKTERPRPNTFVIRCLQWTTVIERTFHVDSPDEREEWMRAIQMVANSLKQRAPGEDPMDYKCGSPSDSSTTEEMEVAVSKARAKVTMND
For the molecule B3, in the assay with Flag-tagged PAD1 (human), the binding entry was “no binding”.
